According to the supplement of paper PMC3334620:
The full ranking holds about 33,000 sequences; the median of “E-score (-0.5 to 0.5)” is about -0.043, and the highest 2% start at about 0.37. Some of the results follow.

target: T1, Upc2 (UniProt Q12151); test: PBM E-score (8-mer binding enrichment) (E-score (-0.5 to 0.5)); higher = stronger / more preferred TF binding; most listed sequences are background and not binding sites; details: protein concentration: 200 nM; construct: GST-full length
T1 sequence: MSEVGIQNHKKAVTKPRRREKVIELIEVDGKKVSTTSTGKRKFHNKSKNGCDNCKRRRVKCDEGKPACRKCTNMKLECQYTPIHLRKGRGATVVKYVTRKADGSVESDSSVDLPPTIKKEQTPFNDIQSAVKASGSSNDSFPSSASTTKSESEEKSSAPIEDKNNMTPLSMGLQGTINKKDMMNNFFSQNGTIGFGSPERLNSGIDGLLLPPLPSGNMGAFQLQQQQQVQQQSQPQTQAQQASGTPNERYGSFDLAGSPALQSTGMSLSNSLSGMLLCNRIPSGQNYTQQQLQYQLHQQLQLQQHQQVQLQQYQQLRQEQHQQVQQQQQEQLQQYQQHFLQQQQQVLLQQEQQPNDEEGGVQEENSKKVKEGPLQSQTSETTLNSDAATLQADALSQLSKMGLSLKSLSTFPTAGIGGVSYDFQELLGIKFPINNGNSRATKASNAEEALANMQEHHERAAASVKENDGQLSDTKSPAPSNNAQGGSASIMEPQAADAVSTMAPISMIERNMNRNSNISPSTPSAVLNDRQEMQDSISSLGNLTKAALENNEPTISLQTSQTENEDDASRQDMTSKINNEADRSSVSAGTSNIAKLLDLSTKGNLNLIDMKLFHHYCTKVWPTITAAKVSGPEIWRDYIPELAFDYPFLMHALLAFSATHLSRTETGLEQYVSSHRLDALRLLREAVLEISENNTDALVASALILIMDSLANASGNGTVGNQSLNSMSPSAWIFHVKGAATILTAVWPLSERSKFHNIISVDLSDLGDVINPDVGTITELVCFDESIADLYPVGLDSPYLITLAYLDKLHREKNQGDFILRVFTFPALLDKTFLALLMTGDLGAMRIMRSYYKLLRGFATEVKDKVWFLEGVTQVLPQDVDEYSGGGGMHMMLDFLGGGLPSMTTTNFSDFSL
Experimental: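 Universal 'all 10-mer' protein binding microarrays (Agilent AMADID 015681) probed with GST-tagged S. cerevisiae TFs (full-length or DBD) made by in vitro transcription/translation (PURExpress), about 100-200 nM. Bound TF was detected with fluorescent anti-GST. Each ungapped 8-mer (which stands for itself and its reverse complement) is scored by the PBM enrichment score (E-score), a modified Wilcoxon-Mann-Whitney statistic from -0.5 to +0.5, computed with the Universal PBM Analysis Suite. Scale: above 0.35 generally sequence-specific binding.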

Row | Sequence | PBM E-score
1 | CCCCACAA | -0.215
2 | ACATTACG | 0.177
3 | ATGCTTGC | -0.113
4 | CGAAGCTA | 0.221
5 | GCAACAAA | 0.0688
6 | CCGACAGA | 0.102
7 | CGCCTCTA | -0.102
8 | CTTTGGGA | -0.207
9 | CTGTACAG | 0.158
10 | AGGATCCT | 0.0508
11 | CTAACAAG | -0.148
12 | ACGTTCCT | 0.105
13 | GGAATACA | -0.107
14 | ACCAAGAG | -0.294
15 | CGGCGCCC | -0.0673
16 | GAGCTCAA | 0.0879
17 | ATCGGGGA | -0.0416
18 | AGCGGATA | 0.0584
19 | CGGCTCTC | -0.12
20 | AGAGTGAA | -0.11
21 | ACGACCAC | 0.302
22 | AGAGGCGC | -0.0107
23 | GGCTAGAA | 0.114
24 | ACGCCCCT | -0.0337
25 | AAACCGAT | 0.149

Row | Sequence | PBM E-score
26 | CAGCGGCC | -0.191
27 | CGTTATAG | 0.063
28 | ATGTGGTG | -0.0304
29 | GCGGCTCA | -0.0608
30 | CATTTCTC | -0.0325
31 | TGAGAAAA | -0.132
32 | GCACTGCC | -0.104
33 | AACCCCCA | -0.34
34 | GAGGTTCA | 0.157
35 | ACAACAGA | -0.171
36 | CGTACTTC | 0.252
37 | ATAGGCAG | -0.034
38 | ACATATCG | 0.0324
39 | TACCCGAA | 0.228
40 | CGCACCTA | 0.00889
41 | ATCACCCC | -0.0784
42 | AACTTATC | -0.121
43 | GCGCGTCC | -0.161
44 | AGCCCAGA | -0.156
45 | CCTAGCCG | -0.225
46 | CTAAAAAC | 0.148
47 | AAGGGGCG | -0.145
48 | AAGACCAA | -0.121
49 | GCGCTTCA | -0.0391
50 | GAGACTGC | -0.00306

Row | Sequence | PBM E-score
51 | AAACTATG | -0.257
52 | ACGTTAAA | 0.269
53 | CCCTGCGC | -0.276
54 | TCGTGTCA | 0.0512
55 | ACTGATTA | 0.00651
56 | CGTTAAAG | 0.4
57 | CGTGCTTC | 0.014
58 | CCACGTAG | -0.0902
59 | GACCATGA | -0.0276
60 | CTAGTCGA | -0.127
61 | ACCAGACA | 0.0296
62 | AAAAAGTC | -0.00907
63 | AACGACAT | 0.432
64 | CAACGAGC | 0.286
65 | GTCCAAAA | -0.107
66 | AATCGTGC | 0.229
67 | AAGGCTGC | -0.0519
68 | CTTTCAGA | -0.0284
69 | TGCAGACA | -0.256
70 | TGAATCCA | -0.147
71 | CTGAACCA | -0.213
72 | GAAGTAAA | 0.0236
73 | CTAGGCGC | -0.0491
74 | AGTGAGAC | -0.0557
75 | TCATGGGA | -0.15

Row | Sequence | PBM E-score
76 | CGCCAATA | 0.0567
77 | ACTTACCT | -0.13
78 | CGACGGCG | 0.0964
79 | AATGCCTA | -0.193
80 | CACTCCAG | 0.0251
81 | ACAGCAGC | -0.0513
82 | CAGCTGAG | -0.107
83 | CTATACCA | 0.0479
84 | CGAGTCAG | 0.00299
85 | GGACGTAC | 0.138
86 | AGTAGTAT | 0.0343
87 | AACTTGAT | -0.00698
88 | ACCCGGTA | 0.177
89 | TGCTTGAA | 0.127
90 | GAACGCCA | -0.107
91 | GAGGTTCC | 0.00524
92 | CCTCTTGC | -0.145
93 | CTGAGGTC | -0.141
94 | CAAGTGAC | -0.18
95 | CTGGGTTA | -0.177
96 | ACTGACTC | -0.192
97 | GATCCATA | 0.0498
98 | ATAAGAAT | 0.17
99 | ATACGACA | 0.477
100 | ACATTACA | -0.0288

Row | Sequence | PBM E-score
101 | ACCAGTAA | -0.0629
102 | AAAGGCCA | -0.0724
103 | AGCAACGC | 0.0264
104 | CATAGAGC | -0.274
105 | AATGCACC | -0.231
106 | CTGGAAGC | -0.236
107 | AAAGCTAT | 0.0307
108 | AATTAACC | -0.00385
109 | CTCCCCCA | -0.201
110 | CCAGGGGC | -0.289
111 | CTCACCTC | -0.00475
112 | GATGACAA | -0.131
113 | AGGCGCTC | 0.00445
114 | GGCCTCAC | -0.0945
115 | AAACTGTG | -0.161
116 | ATCTGCTG | -0.0845
117 | ATATGCGA | 0.322
118 | GCGAACAC | -0.00104
119 | TAACTCAA | -0.0155
120 | CCTTGCAG | -0.237
121 | CCACATTA | 0.00599
122 | ACGGAGGA | 0.0751
123 | CGCGAGTA | 0.214
124 | AACGACGG | 0.437
125 | CCTCGGGC | 0.0115

Row | Sequence | PBM E-score
126 | CATTGTGA | -0.191
127 | ACCAACAG | -0.175
128 | ACCCCGCC | 0.0661
129 | CCCGCCCA | 0.114
130 | CAATCTGA | -0.175
131 | CAGCTCAC | -0.149
132 | CTTTGTCC | -0.0099
133 | ACTAGCCT | -0.107
134 | ACCAGGAA | -0.00714
135 | ACACCCCT | -0.273
136 | AACCTGGT | -0.098
137 | AGGGTGTG | -0.193
138 | GAGTCGGC | -0.176
139 | CGTCAGAA | -0.0731
140 | CTCTTTCA | -0.0132
141 | ACCTTCGT | 0.306
142 | AGTGGCGC | -0.0672
143 | GCGTACCA | 0.215
144 | GGCAGACC | -0.25
145 | ACGTTAGT | 0.05
146 | CCCCTTCA | -0.262
147 | TCAGCACA | 0.0649
148 | ACGGATGA | 0.181
149 | ATCCAGAT | -0.0306
150 | GTTCGGAA | 0.124

Row | Sequence | PBM E-score
151 | GGCTAGGA | -0.251
152 | AATCCGCC | -0.097
153 | AAATGCTT | -0.175
154 | CCGATCGG | 0.0835
155 | CTCCATGC | -0.313
156 | CACAACTG | -0.0369
157 | GGCAGCAC | -0.11
158 | CTTGGAAC | 0.0624
159 | CAGATCCG | -0.065
160 | AAATAGCC | -0.166
161 | GTTCTGAA | 0.0378
162 | CGGAGCGC | -0.0741
163 | TAGGCTCA | -0.279
164 | CAGCACCA | -0.427
165 | GGTCCGGA | 0.1
166 | CGATGTTC | -0.023
167 | CTATACAA | 0.0496
168 | TAATAATA | 0.182
169 | GCGGCGCA | -0.186
170 | ATTGGTGC | -0.0649
171 | GAACAAGA | 0.014
172 | ATCGTTTC | 0.401
173 | GCAAAGCC | -0.0867
174 | AAAACTAG | 0.00719
175 | CCAGAACA | 0.0605

Row | Sequence | PBM E-score
176 | CGGTCTAA | 0.00368
177 | CGGGCGTA | 0.138
178 | TCTTGACA | -0.0889
179 | ACTAAGTG | -0.0479
180 | GAGGAGCA | 0.0188
181 | GAAGTATA | 0.149
182 | GAGCATGA | -0.036
183 | CCTGCACC | -0.24
184 | CATTATCC | 0.116
185 | CACGGTAC | -0.0237
186 | GCGTTCTA | 0.0855
187 | AAAGATGG | -0.225
188 | CTTTGTCA | -0.108
189 | ACCGCAAG | 0.0713
190 | GCTTGAAA | 0.0039
191 | GCGCTTCC | -0.0303
192 | ATAACGTC | -0.0505
193 | GGCAGACA | 0.0889
194 | GCCCCAAA | 0.0539
195 | TCGCTTCA | 0.012
196 | AATACACC | 0.0375
197 | CGACCTAG | 0.138
198 | GATCATAC | 0.132
199 | AGGAATGG | -0.0816
200 | AGACTTCC | -0.0535

Row | Sequence | PBM E-score
201 | CAAAATAA | -0.00602
202 | ACGTCCTC | -0.123
203 | AGATACGC | 0.201
204 | CACATATC | -0.158
205 | ATCTGAGA | -0.112
206 | ATTCTACC | -0.111
207 | GATGACCA | -0.124
208 | ATACAAGC | -0.0812
209 | CGACTGGC | 0.0921
210 | ACTTTATA | 0.127
211 | ACATGTGA | -0.134
212 | CAGGGTGG | -0.0687
213 | CTGTTGAC | -0.0114
214 | GTCAGGGA | -0.174
215 | GCTCGGTA | 0.213
216 | AGCATAAC | -0.00187
217 | TACGGATA | 0.3
218 | ATTGACTC | -0.111
219 | ATGTTCGA | -0.0346
